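The compound was tested at five concentrations on cells cultured in 96-well plates, with a 48-hour exposure period. GI50 marks 50% less growth.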 Activity calls are given as the source filed them. Cut-off read from the data, not from the text of the source: active = GI50 up to about 1.1 µM and inactive = higher.

The test relates to NCI-H322M. Description: NCI anticancer screen, dose series, 48 h.
Turning to `CCC1c2[nH]c3ccccc3c2C[C@H]2C(=O)NC(COC(C)(C)C)C(=O)N12` (stereo partly specified), the GI50 was inactive: 77.6 µM.

Consider `Cc1ccc(SSc2ccc(C)cc2C(=O)O)c(C(=O)O)c1`, for which the GI50 is inactive: > 100 µM. The figure for `Cc1cc(Cl)nc(NC(=O)CSc2ccc(Cl)cc2)n1` is inactive: > 100 µM; for `CN(C)CCSc1cccc(-c2cc(-c3cccc(SCCN(C)C)c3)nc(SCCN(C)C)n2)c1` it is inactive: 1.84 µM. Regarding `COC1CCC(CO)OO1` (stereo unspecified), the GI50 was inactive: 42 µM. For the molecule `COc1cc(/C=N/NC(=O)c2c(Cl)c(Cl)c(Cl)c(Cl)c2-c2nc3ccccc3[nH]2)ccc1O`, the GI50 is inactive: 22.5 µM. The figure for `O=C(Nc1ccccc1-c1n[nH]c(S)nc1=O)C(F)(F)F` is inactive: > 100 µM. `CCOC(=O)c1c(SC(=O)c2ccc(OC)cc2)n(-c2ccccc2)c(=S)n(-c2ccccc2)c1=O`: the GI50 is inactive: 36.5 µM. The figure for `COCOCc1cc(OCc2ccccc2)c(OC)cc1Br` is inactive: > 100 µM; for `O=C(NNC(=S)Nc1cccc(Cl)c1)c1cc(-c2ccccc2)nc2ccccc12` it is inactive: 13.7 µM. The figure for `O=C1C(c2ccccc2)=C(c2ccccc2)C(c2ccccc2)/C1=C1\C(=O)C(c2ccccc2)=C(c2ccccc2)C1c1ccccc1` (stereo unspecified) is inactive: > 100 µM; for `CC(/C=C1\CCC(CN(C)C)C1=O)c1cccc(Br)c1` (stereo unspecified) it is inactive: 19.2 µM. The figure for `CCc1nnc(CC)n1-n1c(Cc2ccccc2)n[nH]c1=O` is inactive: > 100 µM; for `CO[C@@H]1[C@@H](OC2OC(C)C(OC3CC(C)(O)C(OC(=O)CC(C)C)C(C)O3)C(N(C)C)C2O)[C@@H](CC=O)C[C@@H](C)C(=O)/C=C/C2O[C@H]2C[C@@H](C)OC(=O)C[C@H]1OC(C)=O` (stereo partly specified) it is inactive: 24.8 µM. In the case of `OC1(CCc2ccccc2)COC(C(F)(F)F)(C(F)(F)F)C1` (stereo unspecified), the GI50 was inactive: > 100 µM. The figure for `COc1ccc(Nc2nc3cc(C(F)(F)F)ccc3nc2C(=O)O)cc1OC` is inactive: 35.6 µM; for `Cc1cccc2c1Oc1cc(Cl)ccc1C2NC(=O)CN(C)C` (stereo unspecified) it is inactive: 91.6 µM; for `NS(=O)(=O)c1nnc(NS(=O)(=O)c2ccccc2[N+](=O)[O-])s1` it is inactive: > 100 µM. As to `COC(=O)c1cc2cc3c(c(O)c2c(=O)o1)O[C@@]1(Oc2c(O)c4c(c(O)c2[C@H]1OC1CC(OC)C(O)C(C)O1)C(=O)C=C(OC)C4=O)[C@H](O)C3` (stereo partly specified), the GI50 is inactive: 1.23 µM. The figure for `CCC1=NC(N/N=C/c2ccco2)=N/C1=C\c1ccccc1O` is inactive: 23.7 µM; for `CCOC(=O)/C(O)=C/c1cc(OC)cc(=O)o1` it is inactive: > 100 µM.

Turning to `c1ccc2c(c1)NC1(N3CCCCC3)CCCCC21` (stereo unspecified), the GI50 is inactive: 86.9 µM. The figure for `COc1ccc(NC(=S)NNC(=O)c2cc(-c3ccccc3)nc3ccccc23)cc1` is inactive: 21.4 µM; for `Cc1cc(Cl)nc(Nc2nc3ccccc3[nH]2)n1` it is inactive: > 100 µM; for `O=C(/C=C(O)/C(=C/C(=O)c1ccccc1)NN=C(c1ccccc1)c1ccccc1)c1ccccc1` it is inactive: > 100 µM. On to `Clc1nss/c1=N/c1nonc1-c1ccccc1`, for which the GI50 is inactive: > 100 µM.

As to `COC(=O)N/N=C(\C)C(CN1CCCCC1)C(C1=C(O)c2ccccc2OC1)c1ccccc1` (stereo unspecified), the GI50 is inactive: > 100 µM. The figure for `C=C1CC(C)(COc2ccc3c(C)c(C)c(=O)oc3c2C)OC1=O` (stereo unspecified) is inactive: 10.8 µM. The figure for `CCSc1cc(C(=O)OC)c2n(c1=O)CCCC2` is inactive: > 100 µM. The figure for `Cc1cc(NCCCCCCCNc2cc(C)nc3cc(N)ccc23)c2ccc(N)cc2n1` is inactive: 65.2 µM; for `C=C(CN(C)C)C1(c2ccccc2)CC2(CCCC2)C(=O)O1` (stereo unspecified) it is inactive: > 100 µM. In the case of `CC[C@]1(Cc2ccc(OC)c(OC)c2)C=[N+]([O-])O[C@H](OC2CCCCC2c2ccccc2)[C@@H]1OC(C)=O` (stereo partly specified), the GI50 is inactive: 63.1 µM. The figure for `COc1ccc2c(c1)C(OC)C1c3c(cc4c(c3-2)OCO4)CCN1C` (stereo unspecified) is inactive: 4.29 µM. The figure for `CC(C)=CC(=O)c1[nH]c2ccccc2c1CC(=O)NCCc1cn(C(c2ccccc2)(c2ccccc2)c2ccccc2)cn1` is inactive: 3.96 µM; for `CN(C)CCN(C)C(=O)C1CCCN1C(=O)OCc1ccccc1` (stereo unspecified) it is inactive: > 100 µM; for `Nc1c(-c2nc3ccccc3o2)sc(=S)n1-c1ccc(Cl)cc1` it is inactive: 26.3 µM.

Regarding `Cc1c(Cl)cccc1NC(=O)C(=O)C1C(=O)CC(C)(C)CC1=O`, the GI50 is inactive: > 100 µM. The figure for `O=C(O)CCSC(=O)Nc1cccc([N+](=O)[O-])c1` is inactive: > 100 µM.

With `OC1NC2CC3NC(O)C(O)NC3CC2NC1O` (stereo unspecified), the GI50 was inactive: > 100 µM. The figure for `COc1ccc(CCc2ccc(O)c(C(=O)O)c2)cc1OC` is inactive: > 100 µM; for `O=C1c2cc3c(cc2CC1Br)CCC3` (stereo unspecified) it is inactive: 16 µM. The figure for `C(CCC[Te][Te]CCCCCCOC1CCCCO1)CCOC1CCCCO1` (stereo unspecified) is inactive: 17.1 µM; for `COc1ccc(Nc2nc(C#N)c(N)s2)cc1` it is inactive: > 100 µM. The figure for `CN(C)CCNC(=O)Cn1cnc2cccc([N+](=O)[O-])c2c1=O` is inactive: > 100 µM. In the case of `CCOC(=O)/C=C(/C(=O)OCC)n1ccc(=O)n(Cc2cnnn2CCCCOC(C)=O)c1=O`, the GI50 was inactive: > 100 µM. The figure for `CN(C)CCOc1ccc(-c2c(Oc3ccc(Cl)cc3)c(=O)oc3ccccc23)cc1` is inactive: 6.78 µM; for `N#C/C(=C\c1ccc2ccccc2c1)c1ccccc1` it is inactive: 29.2 µM.

In the case of `C[n+]1c2ccccc2c(C(=O)Nc2ccc(S(=O)(=O)N=C(N)N)cc2)c2ccccc21`, the GI50 is inactive: > 100 µM. Regarding `O=[N+]([O-])c1ccc2c(c1)nc(Cc1ccccc1)n2C[C@@H]1CCCN2CCCCC12` (stereo partly specified), the GI50 was inactive: 20.8 µM.

For the molecule `COc1cccc(/N=N/C(=N\NC(=O)c2ccc(C)cc2)c2ccc(N(CCC#N)CCC#N)cc2C)c1`, the GI50 was inactive: > 100 µM. The figure for `CCCCNc1nc(NC2OCC(OC(C)=O)C(OC(C)=O)C2OC(C)=O)c(N=O)c(=O)n1C` (stereo unspecified) is inactive: > 10 µM; for `N=c1c2c(=S)n(-c3ccccc3)c(=S)n(-c3ccccc3)c2nc(SCCN2CCCC2)n1-c1ccccc1` it is inactive: 11.7 µM; for `CCCCCCCCCCCCCCCCNc1ccn(C2CC(OP(=O)(O)OCC3OC(n4cc(CC)c(=O)[nH]c4=O)CC3O)C(CO)O2)c(=O)n1` (stereo unspecified) it is inactive: 45.2 µM. The figure for `Cc1cc(Cl)ccc1NC(=O)CC/C(CC(=O)C(C)C)=N\NC(=O)C[n+]1ccccc1` is inactive: > 100 µM; for `S=C(N/N=C/c1ccccc1)NC1CC(c2ccccc2)Oc2ccccc21` (stereo unspecified) it is inactive: 53.8 µM; for `CC(/C=C/C(O)=C1/C(=O)CNC1=O)=C\[C@@H](C)[C@H]1O[C@@]2(C)O[C@H](C(=O)[C@@H]3O[C@@]32C)[C@@H]1C` it is inactive: 17.6 µM. Turning to `CCCn1cc2c(SC)nc(SC)nc2n1`, the GI50 is inactive: > 100 µM. The figure for `CC(C)C/C=C/C1=NN(c2cccc(S(=O)(=O)O)c2)C2(C1)SCC(=O)N2c1nc2ccccc2s1` (stereo unspecified) is inactive: > 100 µM. In the case of `COc1cc(CCCl)c(CC2=NCCc3cc(OC)c(OC)cc32)cc1OC`, the GI50 is inactive: 81.8 µM. The figure for `O=C(NCC(=O)N1CCCC1C(=O)OC(=O)C1CCCN1C(=O)CNC(=O)OCc1ccccc1)OCc1ccccc1` (stereo unspecified) is inactive: 23.9 µM.

In the case of `COC12OCCN(CCO)C1=CC(=O)C1(C)N=NC(C)C12` (stereo unspecified), the GI50 is inactive: > 100 µM. The figure for `O=[N+]([O-])c1ccccc1S(=O)(=O)c1cc(O)cc2c1NCCC2` is inactive: 17 µM; for `O=C(NC(=O)c1ccccc1[N+](=O)[O-])Nc1ccc(Oc2ncc(Cl)cn2)c(C(F)(F)F)c1` it is active: 0.0261 µM; for `C(=C\Nc1ccc(Oc2ccccc2)cc1)/C=N/c1ccc(Oc2ccccc2)cc1` it is inactive: 16.5 µM. Turning to `CC1(C)CC(=O)c2c([nH]c(=S)c(C#N)c2-c2ccc(Br)cc2)C1`, the GI50 is inactive: 75.5 µM. The figure for `Cc1ccc2c(c1)nc1n2C(N)=Nc2ccccc2S1` is inactive: > 100 µM.

In the case of `CCCCCCCC(=O)OCC1OC(n2cc(F)c(=O)[nH]c2=O)C(NC(=O)OCc2ccccc2)C(OC(=O)CCCCCCC)C1O` (stereo unspecified), the GI50 was inactive: 52.6 µM. With `O=C(N/C(=C\c1cc(Cl)ccc1Cl)c1nc2cc(Cl)ccc2[nH]1)c1ccccc1`, the GI50 is inactive: 18.8 µM.

Turning to `O=C1C(=O)N(c2cc(Cl)ccc2Cl)C(=O)C(=O)C1c1nc2ccccc2o1`, the GI50 was inactive: > 100 µM.

As for `O=C1NC(Cc2ccc(O)cc2)C(=O)NC1Cc1ccc(O)cc1` (stereo unspecified), the GI50 is inactive: > 100 µM.

On to `N#C/C(=C\c1ccc(F)cc1)c1nc(-c2cc3ccccc3oc2=O)cs1`, for which the GI50 was inactive: 56.1 µM.

For `O=C(O)CCSC(=O)Nc1ccccc1Cl`, the GI50 was inactive: > 100 µM. The figure for `Cc1c(S(=O)(=O)N/C(N)=N/c2ccc(Cl)cc2)sc2ccc(Cl)cc12` is inactive: 18 µM.

Turning to `O=C(/C=C/c1ccc(Cl)cc1)Oc1ccc(C=C2CCC/C(=C\c3ccc(OC(=O)/C=C/c4ccc(Cl)cc4)cc3)C2=O)cc1`, the GI50 was inactive: > 100 µM.

For `COc1ccc(-c2nc3ccccc3s2)cc1OC`, the GI50 was inactive: 15.5 µM. The figure for `CC(C(=O)OCc1ccccc1)N(Cc1ccccc1)Cc1ccccc1` (stereo unspecified) is inactive: > 100 µM. The figure for `O=C(NC(c1ccccc1)C(O)C(=O)OCc1ccc2c(c1)C(=O)c1ccccc1C2=O)c1ccccc1` (stereo unspecified) is inactive: 7.85 µM; for `O=C(O)c1cc2cc(OCc3ccccc3)ccc2[nH]1` it is inactive: > 100 µM. The figure for `CN(C)/N=N/c1cccc(C(N)=O)c1` is inactive: > 100 µM.

`N#Cc1ccc(/C=[N+](/C=c2ccc(=C=[N-])cc2)N(CCO)C2=NCCN2)cc1`: the GI50 is inactive: > 100 µM. The figure for `Nc1ccc(/N=N/c2ccccc2)cc1` is inactive: 65.5 µM.

These data come from ChEMBL document CHEMBL1201862, “PubChem BioAssay data set” (2004).
